This is one part of the list.

This experiment has as its system PfHDP1 homeodomain (GST-tagged). Kind of experiment: gcPBM binding intensity (ln(normalized median fluorescence intensity)); higher = stronger DNA binding. A digest of the protocol: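 DNA-binding domains from P. falciparum, fused to GST and produced in E. coli, were put on an Agilent 4 × 180k double-stranded probe array for 1 h in 1× PBS holding 1% milk, 0.2 mg/ml BSA, 0.5% salmon testes DNA and 0.03% Triton X-100. Probes were primer-extended, 36 bp long and drawn from intergenic genomic regions, with negative controls included. After Alexa488 anti-GST antibody detection and a 488 nm scan, binding intensity was set as the highest Masliner-normalised natural-log median intensity across replicate spots of either probe orientation.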
As to “AATACGTTTCAAAAATGTACACATATATCATAAATA [XGTACX_site8962]”, the “gcPBM binding intensity (ln)” value worked out at 6.2.

As for “GCCATTAATTTATACACACACATTATAACTTTTTAT [CACACA_site6492]”, the “gcPBM binding intensity (ln)” value stood at 7.49.

Turning to “TTAAATAAAAAAATAACACACATATAAATCTATATG [CACACA_site7482]”, the “gcPBM binding intensity (ln)” value stood at 6.31.

As for “TATCAGCAATGGAAAACATGCAAAAAATTAATATAT [TGCATGCA_site623]”, the “gcPBM binding intensity (ln)” value was 6.97.

Regarding “ATATCAAGCTATGAGAAAAAAAAAAAGAAAAAAAAA [CACACA_negctrl_site1370]”, the “gcPBM binding intensity (ln)” value was 5.68.

For “AAATATATTGCATATATACACACGTATATATATTAA [CACACA_site2759]”, the “gcPBM binding intensity (ln)” value was 6.83.

With “AAGTTTTCTTAAAGATGTACTTTTTAAAAATAAAAT [XGTACX_site3063]”, the “gcPBM binding intensity (ln)” value came out at 6.15.

In the case of “ATATTATAAATTATAGGTACACACAAAAAAAAAAAG [XGTACX_site2637]”, the “gcPBM binding intensity (ln)” value stood at 6.89.

As to “TGATTCTTTTCAAAGTGTACAGTAATTTTTATGTAA [XGTACX_site8452]”, the “gcPBM binding intensity (ln)” value worked out at 6.08.

Consider “TATATAATTCAAAAATGTACATGAAATATAAATATT [XGTACX_site7984]”, for which the “gcPBM binding intensity (ln)” value came to 6.45.

“TATATTTATTTTTAATGTACATATTTAAGAAAACTA [XGTACX_site4920]”: the “gcPBM binding intensity (ln)” value turned out to be 6.31.

Turning to “GACTCATTAAGGATTATTCCTAATGATCAAAAGAAC [CACACA_negctrl_site515]”, the “gcPBM binding intensity (ln)” value stood at 6.54.

Regarding “TATAGCTTTCATTATACACACATCAAAAATTTAAAT [CACACA_site227]”, the “gcPBM binding intensity (ln)” value is 6.81.

As for “AGTAATAAATTTTATACATGCATAAAAAAAAAAAAA [TGCATGCA_site661]”, the “gcPBM binding intensity (ln)” value is 6.79.

Take “TTAAAAATCATTTAAGAACACACAAATATTTCCATT [CACACA_site8418]”: the “gcPBM binding intensity (ln)” value was found to be 6.69.

On to “AACTTGTATTTATACACACACACACTAGCTTTTTTT [CACACA_site5132]”, for which the “gcPBM binding intensity (ln)” value is 6.99.

With “AGAATTAAAAACAGTTGTACAAAAAGTTGTATAAAT [XGTACX_site411]”, the “gcPBM binding intensity (ln)” value was 7.41.

Consider “ATCATTTCTATATAAGCACACACGTGGAATTTTTTT [CACACA_site2786]”, for which the “gcPBM binding intensity (ln)” value turned out to be 6.81.

In the case of “TTTCTTTAACAAGTTAAACACACATACATATATACA [CACACA_site8810]”, the “gcPBM binding intensity (ln)” value was 6.7.

As to “AAAATAAATATATTATCCACGTTGTATATATATATA [XGTACX_negctrl_site136]”, the “gcPBM binding intensity (ln)” value turned out to be 9.05.

As to “AATAAATATAAAAATGCACACACACTAATAAAAAAA [CACACA_site8201]”, the “gcPBM binding intensity (ln)” value is 9.26.

“CACATACAGATATATACACACAAATATAAATACACA [CACACA_site6512]”: the “gcPBM binding intensity (ln)” value came out at 6.81.

With TTACTTATATGCATAGTGCAAATTTGGTAAATATCT, the “gcPBM binding intensity (ln)” value is 9.42.

Take “AATAAACAAATAAATAAACACACAATATATGTATAT [CACACA_site9268]”: the “gcPBM binding intensity (ln)” value amounted to 6.39.

Take “CATAAAAATTGAAGCACACACACAAAAGAAATACAA [CACACA_site1112]”: the “gcPBM binding intensity (ln)” value is 7.12.

In the case of “AAAAAGAAATACAAATAATATATATATATATATATT [TGCATGCA_negctrl_site458]”, the “gcPBM binding intensity (ln)” value was 6.83.

“TACATTTTAATATAAGCATGCCTTTAGTTTTTTTCT [TGCATGCA_site829]”: the “gcPBM binding intensity (ln)” value was 6.6.

As for “AATACAAATATATATGCACACACATATACATACATA [CACACA_site8677]”, the “gcPBM binding intensity (ln)” value is 9.99.

For CAATTTATTATATATGTGCACATATAATTTTACAAA, the “gcPBM binding intensity (ln)” value is 10.4.

On to “TAATTATTTTTATTGTTGCACTAGTAAAATTTTAAG [GTGCAC_site9946]”, for which the “gcPBM binding intensity (ln)” value was found to be 8.49.

Take GAAAATATATTTAAGATGCACTTTAAAAATGTACTT: the “gcPBM binding intensity (ln)” value turned out to be 7.26.

For “AAGTAATCATCATAAAGTACTAAATTATATTGTCAA [XGTACX_site5841]”, the “gcPBM binding intensity (ln)” value turned out to be 6.31.

On to “AAATTATATATAAAATGTACATATGTAGGTAATTTT [XGTACX_site5047]”, for which the “gcPBM binding intensity (ln)” value was determined as 7.18.

For the sequence “ACATTCTGATGGTGATTATTAATTATTACAAAAATT [CACACA_negctrl_site283]”, the “gcPBM binding intensity (ln)” value turned out to be 6.01.

With “ACTTTATTATATATTTGTACATATATTTTTAATTTC [XGTACX_site4144]”, the “gcPBM binding intensity (ln)” value was 6.86.

On to “TATTTATTGTGATACTTATATTATTTCATGATTAAT [CACACA_negctrl_site738]”, for which the “gcPBM binding intensity (ln)” value turned out to be 6.35.

On to “GTATATATGTATGTATGTACTTATAAAGTTGCATAT [XGTACX_site5616]”, for which the “gcPBM binding intensity (ln)” value was 8.58.

Take “TCTACATCTGTATATAAACACACAACAAAAATGCTT [CACACA_site9271]”: the “gcPBM binding intensity (ln)” value came out at 6.46.

“AATGTGTAGACACGCACACACAAAAAAATATTTATA [CACACA_site7384]”: the “gcPBM binding intensity (ln)” value was 6.67.

For the sequence “TTCTTACACAAAAAAATGAAATCAATCAAAAAAAAA [CACACA_negctrl_site869]”, the “gcPBM binding intensity (ln)” value stood at 5.98.

As to “TATATATTTCAATAATGTACATATAATATATATATT [XGTACX_site4124]”, the “gcPBM binding intensity (ln)” value was 6.6.

Turning to “AAGTAAAATAAGTATACACACATAAATATGTAAATA [CACACA_site6467]”, the “gcPBM binding intensity (ln)” value is 6.34.

In the case of “TTGTTTTCACCAAATACACACAAGCATACACCCCAT [CACACA_site2717]”, the “gcPBM binding intensity (ln)” value is 7.34.

Consider “ATACATAAATTTATACGTACATATATAGATACATAA [XGTACX_site675]”, for which the “gcPBM binding intensity (ln)” value stood at 6.61.

Regarding “TTACATGCTAAAATTTGTACATATATGATAAATATT [XGTACX_site2648]”, the “gcPBM binding intensity (ln)” value was found to be 6.47.

Turning to “AAATATTACTCCTCAAGTACACATAAAAAAAAAATA [XGTACX_site2085]”, the “gcPBM binding intensity (ln)” value is 6.62.

“TTTTATTTTCGATGATGTACATTAAATTATACAGTA [XGTACX_site6053]”: the “gcPBM binding intensity (ln)” value turned out to be 6.36.

Take “TAAAAATTTAAGAAAACATGCATCTAACATATATAT [TGCATGCA_site342]”: the “gcPBM binding intensity (ln)” value worked out at 6.52.

Take “TATTTTTTTTGATATTGTACTTTTTTATTATTTTTT [XGTACX_site566]”: the “gcPBM binding intensity (ln)” value came to 6.55.

With “AATATACAAAATAAATAAAATATATATATATATATA [CACACA_negctrl_site216]”, the “gcPBM binding intensity (ln)” value is 9.24.

For the sequence “GGTAGGTGAATATATACACACATATATTATATATAT [CACACA_site1984]”, the “gcPBM binding intensity (ln)” value turned out to be 7.04.

With “TACACATGTTTAAAATGTACGTTTTATAACACACAC [XGTACX_site8229]”, the “gcPBM binding intensity (ln)” value was found to be 7.39.

Take “AAAAAAAATTAAGCATGTATAAATATATATATATAT [CACACA_negctrl_site1540]”: the “gcPBM binding intensity (ln)” value amounted to 9.02.

As for “TTTTACAAGTATTGATAAATAAGAAATATATAAAAT [CACACA_negctrl_site529]”, the “gcPBM binding intensity (ln)” value is 6.35.

“GTGTATTTTGTGCGCACACACATGCAAAAAGAAATA [CACACA_site6660]”: the “gcPBM binding intensity (ln)” value stood at 9.54.

In the case of “ATCATTTTTAATAAATGTACAAGTTTTAAAAAAAAA [XGTACX_site7340]”, the “gcPBM binding intensity (ln)” value is 6.02.

On to “AAAAAAACAACATGCACACGCACACCCAAAAAAAGC [CACACA_site72]”, for which the “gcPBM binding intensity (ln)” value stood at 8.81.

Values taken from the supplement of paper PMC11417369.
